Measured values as given in patent publication US20180201654A1 (UNIVERSITY OF SOUTHERN CALIFORNIA, published 2018).

Target: T1, vIRF4 (Kaposi's-sarcoma-associated-herpesvirus vIRF4), full length wild type (Kaposi's-sarcoma-associated-herpesvirus …, UniProt Q2HR73 1-911)
T1 sequence: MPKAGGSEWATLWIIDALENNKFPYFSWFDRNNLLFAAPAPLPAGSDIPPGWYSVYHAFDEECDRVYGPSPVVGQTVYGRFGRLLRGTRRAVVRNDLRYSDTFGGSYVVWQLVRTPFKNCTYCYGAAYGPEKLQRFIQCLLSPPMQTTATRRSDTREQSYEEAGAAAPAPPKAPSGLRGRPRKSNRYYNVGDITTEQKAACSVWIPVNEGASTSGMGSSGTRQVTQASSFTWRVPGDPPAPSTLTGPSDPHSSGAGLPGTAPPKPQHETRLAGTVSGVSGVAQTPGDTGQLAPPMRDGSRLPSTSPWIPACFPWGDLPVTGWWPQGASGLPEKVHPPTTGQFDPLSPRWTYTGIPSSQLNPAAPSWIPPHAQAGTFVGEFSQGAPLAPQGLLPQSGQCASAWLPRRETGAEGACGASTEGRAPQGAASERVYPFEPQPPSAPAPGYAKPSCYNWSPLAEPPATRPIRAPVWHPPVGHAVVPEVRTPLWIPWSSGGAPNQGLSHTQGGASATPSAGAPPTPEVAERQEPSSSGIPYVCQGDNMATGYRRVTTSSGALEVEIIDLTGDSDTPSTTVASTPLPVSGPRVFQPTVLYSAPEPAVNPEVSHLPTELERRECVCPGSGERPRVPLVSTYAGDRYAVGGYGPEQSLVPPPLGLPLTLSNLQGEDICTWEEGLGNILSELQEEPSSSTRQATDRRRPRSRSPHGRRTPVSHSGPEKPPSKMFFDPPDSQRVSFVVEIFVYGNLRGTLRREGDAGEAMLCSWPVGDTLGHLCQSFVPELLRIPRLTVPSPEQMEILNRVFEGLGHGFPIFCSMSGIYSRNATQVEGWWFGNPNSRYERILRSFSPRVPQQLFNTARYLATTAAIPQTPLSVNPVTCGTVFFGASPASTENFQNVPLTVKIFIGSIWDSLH
Assay: co-immunoprecipitation from transfected 293T cells, IP: V5, IB: Flag

B1: Flag/HAUSP […] (enzyme)
single chain: not shown
- binding result: binds
